Assay results published in PMC4336329 (PLoS ONE, 2015).
Out of some 310,000 compounds screened, about 14,000 (4.5%) showed an effect of 50% or more. Effects have a minus sign here. This is one part of the list.

target: human ether-à-go-go-related gene (hERG) potassium channel (human, UniProt Q12809); assay: primary screen, population patch clamp on CHO cells stably expressing hERG
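Also: peak tail current of the secondary pulse compared with the same well before compound.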

human ether-à-go-go-related gene (hERG) potassium channel, sequence (Q12809 whole entry, looked up): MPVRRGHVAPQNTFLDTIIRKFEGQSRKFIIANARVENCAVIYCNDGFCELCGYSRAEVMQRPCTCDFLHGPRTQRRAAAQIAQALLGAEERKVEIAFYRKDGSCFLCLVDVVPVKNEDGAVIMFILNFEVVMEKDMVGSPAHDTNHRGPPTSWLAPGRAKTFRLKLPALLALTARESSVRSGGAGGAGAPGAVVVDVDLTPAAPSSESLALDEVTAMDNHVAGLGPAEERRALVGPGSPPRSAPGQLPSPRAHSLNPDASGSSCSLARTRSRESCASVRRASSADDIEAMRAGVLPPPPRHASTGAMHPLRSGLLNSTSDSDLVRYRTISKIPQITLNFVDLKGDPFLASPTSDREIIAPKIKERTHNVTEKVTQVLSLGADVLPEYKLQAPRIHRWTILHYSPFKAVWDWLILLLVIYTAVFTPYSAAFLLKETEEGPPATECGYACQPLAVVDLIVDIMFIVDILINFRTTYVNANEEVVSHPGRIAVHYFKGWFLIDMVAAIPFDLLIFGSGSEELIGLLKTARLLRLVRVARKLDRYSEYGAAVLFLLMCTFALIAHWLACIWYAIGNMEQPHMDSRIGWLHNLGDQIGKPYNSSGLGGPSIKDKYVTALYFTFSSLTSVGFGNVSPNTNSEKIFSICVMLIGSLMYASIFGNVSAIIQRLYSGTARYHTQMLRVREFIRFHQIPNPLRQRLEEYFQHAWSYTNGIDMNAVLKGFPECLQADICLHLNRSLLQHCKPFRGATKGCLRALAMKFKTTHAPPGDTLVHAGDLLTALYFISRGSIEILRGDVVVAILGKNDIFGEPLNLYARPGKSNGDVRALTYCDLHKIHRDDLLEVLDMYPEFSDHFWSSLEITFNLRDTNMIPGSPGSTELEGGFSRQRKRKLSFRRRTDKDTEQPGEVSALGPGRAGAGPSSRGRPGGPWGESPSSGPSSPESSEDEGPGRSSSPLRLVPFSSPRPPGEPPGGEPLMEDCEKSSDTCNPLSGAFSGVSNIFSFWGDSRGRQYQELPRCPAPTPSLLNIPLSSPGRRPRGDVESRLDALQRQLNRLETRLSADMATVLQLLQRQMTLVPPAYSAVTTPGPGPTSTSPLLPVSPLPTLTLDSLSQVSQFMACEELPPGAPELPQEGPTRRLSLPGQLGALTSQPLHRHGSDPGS

SMILES | hERG current change (%, negative = inhibition) at 10uM [%]
CC(C)c1ccc(/C=C/C(=O)NCCCc2ccccc2)cc1 | -0.832
CCn1cnc2c1c(=O)n(CC(=O)NCc1ccccc1)c(=O)n2Cc1ccccc1 | 0.683
COc1ccc(/C=C2\SC(=S)N(CCC(=O)NC3CCCC3)C2=O)cc1OC | 1.5
Cc1cccc(N2CCN(S(=O)(=O)c3cc(-c4cc(C)no4)ccc3C)CC2C)c1 (stereo not drawn) | 18.9
CN(C)C(CNC(=O)c1ccc(S(=O)(=O)Nc2ccccc2F)cc1)c1ccco1 (stereo not drawn) | -15
COc1ccc(C2N=C(N)N=C(N)N2c2ccccc2)cc1OC.Cl (stereo not drawn) | -1.46
COCCn1c(-c2ccccc2)nc2oc3cc(OC)ccc3c(=O)c2c1=O | -2.27
Cc1onc(-c2ccccc2)c1C(=O)Nc1ccc(S(=O)(=O)Nc2nccs2)cc1 | 9.28
CN(CC(=O)Nc1cccc(F)c1)C(=O)c1cccnc1Sc1ccc(Cl)cc1 | -7.82
CC(C)CN(CC(C)C)S(=O)(=O)N1CCC(C(=O)NC2CCCCCCC2)CC1 | 0.658
O=C(NCc1ccc2c(c1)OCO2)c1ccc(Br)s1 | 6.32
CCOC(=O)CN/C=C(\C#N)c1ccc(F)cc1 | 43.2
O=C(CN1CCCC1)Nc1c(Cl)cccc1Cl | 19.9
COC(=O)CN(c1ccc(C)cc1)S(=O)(=O)c1ccc2c(c1)n(C)c(=O)c(=O)n2C | -12.4
COc1ccc(C(F)(F)F)cc1NC(=O)c1nc2nc(C)cc(C(F)F)n2n1 | 6
O=C(CCCN1C(=O)c2cccc3cccc(c23)C1=O)NCc1cccnc1 | 0.34
Cc1cc(Cl)ccc1OCC(=O)Nc1ccccc1C(=O)N1CCOCC1 | -6.01
Cc1cc(CNC(=O)COC(=O)Cn2[nH]c(=O)c3ccccc3c2=O)cc(C)c1O | 27.3
COc1ccc(C(=O)NC(C(=O)NCCc2ccc3c(c2)OCCO3)C(C)C)cc1 (stereo not drawn) | 8.77
O=S(=O)(Cc1ccccc1Cl)N1CCN(Cc2ccc3c(c2)OCO3)CC1 | -29.4
CC1CCCN(C(=O)CCNS(=O)(=O)c2ccc3c(c2)oc(=O)n3C)C1 (stereo not drawn) | 11.5
COc1cc(OC)cc(C(=O)N2CCN(C(=O)c3cccs3)CC2)c1 | 3.72
Cc1cccnc1NC(=O)Nc1cccs1 | 12.4
NNC(=O)c1cc2c(s1)CCCCCC2 | 13
